Reference: PubChem BioAssay (Tox21)
Inconclusive means that the source gave no clear call. Such entries were picked first, then a sample of the others. Potencies beside an inconclusive call are fits to weak or partial responses and may not hold up. Calls of active or inactive are those of the source. Unless noted, calls come from the whole dose curve; as a rule, active = well fitted cell-killing curve with a large enough effect in the repeat runs; inconclusive = weak or mixed curves, or effect the other way; inactive = flat fitted curve, though single readings scatter.

Molecular target: Estrogen receptor beta (Homo sapiens) (UniProt Q92731)
Test: qHTS assay to identify small molecule antagonists of the estrogen receptor beta (ER-beta) signaling pathway (AID 1259378; active = well fitted inhibition curve with a large enough effect in the signal ratio in the repeat runs, not every such curve was filed as active; inconclusive = weak or mixed curves, or effect the other way; inactive = no such curve, though single readings can be large or run the other way; the % refers to the signal ratio)
Conditions: ER-beta-UAS-bla HEK293T, beta-lactamase FRET ratio, 16 h; activity, negative = inhibition: at 92.4 µM (top of the series) unless noted
Summary of the method: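 Antagonist mode: compounds added to beta-lactamase reporter HEK293T ER-beta-UAS cells stimulated with E2 (1nM final), 16 hr at 37C. LiveBLAzer B/G FRET substrate, 2 hours room temperature, fluorescence read-out.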
% is set by controls: 0 for no effect and ±100 for the full control effect; potency is the fitted concentration of half-maximal effect; tags give direction and shape of the fitted curve or compound fluorescence and quenching.

Chain of UniProt Q92731 (Q92731 whole entry, looked up): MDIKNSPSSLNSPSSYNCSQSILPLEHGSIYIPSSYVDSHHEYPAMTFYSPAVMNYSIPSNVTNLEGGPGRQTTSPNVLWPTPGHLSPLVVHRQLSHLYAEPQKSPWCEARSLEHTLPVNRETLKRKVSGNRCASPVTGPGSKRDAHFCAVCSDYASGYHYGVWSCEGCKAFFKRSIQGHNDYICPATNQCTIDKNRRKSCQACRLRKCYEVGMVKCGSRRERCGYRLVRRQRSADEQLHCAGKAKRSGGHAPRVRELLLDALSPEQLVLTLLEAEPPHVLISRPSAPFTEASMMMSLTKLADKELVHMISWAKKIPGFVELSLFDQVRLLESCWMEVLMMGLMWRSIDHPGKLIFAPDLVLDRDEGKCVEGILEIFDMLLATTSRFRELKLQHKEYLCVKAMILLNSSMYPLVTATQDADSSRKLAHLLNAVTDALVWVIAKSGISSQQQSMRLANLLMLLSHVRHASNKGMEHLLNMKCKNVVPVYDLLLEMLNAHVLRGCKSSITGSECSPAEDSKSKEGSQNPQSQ

SMILES | activity, negative = inhibition | Potency
NS(=O)(=O)O | inconclusive: 24.2% | 
CCCN(CCc1cccs1)[C@H]1CCc2c(O)cccc2C1 |  | inconclusive: 33.5 µM [single point]
CCCCCc1ccc(N)cc1 |  | inactive
CC(C(=O)O)c1ccc(-c2ccccc2)c(F)c1 (stereo not drawn) |  | inactive
C#C[C@]1(O)CC[C@H]2[C@@H]3CCc4cc(OC5CCCC5)ccc4[C@H]3CC[C@@]21C | inconclusive: 2.62% [at 42.5 µM] | 
CCCCCCCCCCCCCCCCCCOS(=O)(=O)O |  | active: 48.6 µM
CCCCCCc1ccc(N)cc1 | inconclusive: -44% | 
OCCN(CCO)c1nc(N2CCCCC2)c2nc(N(CCO)CCO)nc(N3CCCCC3)c2n1 |  | inconclusive: 23.7 µM [fluorescent, partial curve]
COc1c(C)c2c(c(O)c1C/C=C(\C)CCC(=O)O)C(=O)OC2 |  | inconclusive: 18.8 µM [rising, partial curve, poor fit]

System: not listed separately
Test: qHTS assay to identify small molecule agonists of the androgen receptor (AR) signaling pathway in the presence of an antagonist - cell viability counter screen (AID 1259379); note: nearly all actives have a fitted effect of over 25% in size
Conditions: MDA-kb2 viability, CellTiter-Fluor, 16 h; series mostly up to 92.4 µM
Summary of the method: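 Each compound was tested at 15 concentrations on MDA-kb2 cells in the presence of 3.0uM nilutamide. Viability was measured by CellTiter-Fluor fluorescence after a 16 hr incubation at 37C in a CO2-free atmosphere.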

SMILES | Potency
O=C1OC2(c3ccc(O)cc3Oc3cc(O)ccc32)c2ccc(N=C=S)cc21 | inconclusive: 39.3 µM [rising, partial curve]
c1ccc2sc(SSN3CCOCC3)nc2c1 | inconclusive: 68.5 µM [cytotoxic, single point] and inactive
C=C[C@](C)(O)CC[C@@H]1[C@@]2(C)CCCC(C)(C)[C@@H]2CC[C@@]1(C)O | inconclusive: 68.6 µM [cytotoxic]
O=C(Oc1ccccc1)c1ccccc1O | inactive
OCCN(CCO)c1nc(N2CCCCC2)c2nc(N(CCO)CCO)nc(N3CCCCC3)c2n1 | inconclusive: 13.3 µM [rising, partial curve]

System: not listed separately
Test: qHTS assay to identify small molecule agonists of the estrogen receptor beta (ER-beta) signaling pathway - cell viability counter screen (AID 1259380); note: nearly all actives have a fitted effect of over 30% in size
Conditions: ER-beta-bla HEK293T viability, CellTiter-Glo luminescence, 16 h; series mostly up to 92.4 µM
Summary of the method: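 Compounds dissolved in DMSO were pin-transferred onto ER-beta-UAS-bla HEK293T cells that had settled 6 hr, and exposure ran 16 hr at 37C. Following the reporter read, CellTiter-Glo luminescence after 30 min at room temperature indicated cytotoxicity.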

SMILES | Potency
CN(Cc1cc(Br)cc(Br)c1N)C1CCCCC1 | inconclusive: 33.5 µM [cytotoxic, single point]
O=c1n(CCCN2CCN(c3cccc(Cl)c3)CC2)nc2ccccn12 | inconclusive: 18.8 µM [cytotoxic, partial curve]
CCCCCCCCCCCCN1CCCCCC1=O | active: 30.6 µM
CC(=O)Nc1ccc(S(=O)(=O)Cl)cc1 | inactive
c1ccc2sc(SSN3CCOCC3)nc2c1 | inconclusive: 38.5 µM [cytotoxic, partial curve]
CCCCCc1ccc(N)cc1 | inconclusive: 43.3 µM [cytotoxic, partial curve]
O=C(Oc1ccccc1)c1ccccc1O | inconclusive: 29.8 µM [rising, partial curve, poor fit]
CC(O)C#CC(C)O (stereo not drawn) | inconclusive: 67.9 µM [cytotoxic, single point]
CN1CCC(N(Cc2cccs2)c2ccccc2)CC1 | inconclusive: 29.8 µM [cytotoxic, single point]
C#C[C@]1(O)CC[C@H]2[C@@H]3CCc4cc(OC5CCCC5)ccc4[C@H]3CC[C@@]21C | active: 29.8 µM
CC(C)c1ccc(O)c(C(C)C)c1 | inconclusive: 68.6 µM [cytotoxic, single point]
CCCCCCCCCCCCCCCCOP(=O)([O-])OCC[N+](C)(C)C | inconclusive: 33.5 µM [single point]
CCCCCCCCCCCCCCCCCCOS(=O)(=O)O | active: 48.6 µM
CC(Cc1cccc(C(F)(F)F)c1)NCCOC(=O)c1ccccc1 (stereo not drawn) | inconclusive: 29.8 µM [cytotoxic, single point]
CCCCCCc1ccc(N)cc1 | active: 27.3 µM
OCCN(CCO)c1nc(N2CCCCC2)c2nc(N(CCO)CCO)nc(N3CCCCC3)c2n1 | inconclusive: 10.6 µM [cytotoxic, partial curve]
Oc1ccc(Oc2ccccc2)cc1 | inactive
COc1c(C)c2c(c(O)c1C/C=C(\C)CCC(=O)O)C(=O)OC2 | active: 0.133 µM
CCCC(C)c1ccccc1O (stereo not drawn) | inactive
